# The whole screen tested about 310,000 compounds, of which about 2,200 (0.71%) showed an effect of 50% or more. The effect is printed as a negative number. The list shows a part of the results.
# Target: human ether-à-go-go-related gene (hERG) potassium channel (human, UniProt Q12809)
# Test: primary screen, population patch clamp on CHO cells stably expressing hERG
# human ether-à-go-go-related gene (hERG) potassium channel, sequence (Q12809 whole entry, looked up): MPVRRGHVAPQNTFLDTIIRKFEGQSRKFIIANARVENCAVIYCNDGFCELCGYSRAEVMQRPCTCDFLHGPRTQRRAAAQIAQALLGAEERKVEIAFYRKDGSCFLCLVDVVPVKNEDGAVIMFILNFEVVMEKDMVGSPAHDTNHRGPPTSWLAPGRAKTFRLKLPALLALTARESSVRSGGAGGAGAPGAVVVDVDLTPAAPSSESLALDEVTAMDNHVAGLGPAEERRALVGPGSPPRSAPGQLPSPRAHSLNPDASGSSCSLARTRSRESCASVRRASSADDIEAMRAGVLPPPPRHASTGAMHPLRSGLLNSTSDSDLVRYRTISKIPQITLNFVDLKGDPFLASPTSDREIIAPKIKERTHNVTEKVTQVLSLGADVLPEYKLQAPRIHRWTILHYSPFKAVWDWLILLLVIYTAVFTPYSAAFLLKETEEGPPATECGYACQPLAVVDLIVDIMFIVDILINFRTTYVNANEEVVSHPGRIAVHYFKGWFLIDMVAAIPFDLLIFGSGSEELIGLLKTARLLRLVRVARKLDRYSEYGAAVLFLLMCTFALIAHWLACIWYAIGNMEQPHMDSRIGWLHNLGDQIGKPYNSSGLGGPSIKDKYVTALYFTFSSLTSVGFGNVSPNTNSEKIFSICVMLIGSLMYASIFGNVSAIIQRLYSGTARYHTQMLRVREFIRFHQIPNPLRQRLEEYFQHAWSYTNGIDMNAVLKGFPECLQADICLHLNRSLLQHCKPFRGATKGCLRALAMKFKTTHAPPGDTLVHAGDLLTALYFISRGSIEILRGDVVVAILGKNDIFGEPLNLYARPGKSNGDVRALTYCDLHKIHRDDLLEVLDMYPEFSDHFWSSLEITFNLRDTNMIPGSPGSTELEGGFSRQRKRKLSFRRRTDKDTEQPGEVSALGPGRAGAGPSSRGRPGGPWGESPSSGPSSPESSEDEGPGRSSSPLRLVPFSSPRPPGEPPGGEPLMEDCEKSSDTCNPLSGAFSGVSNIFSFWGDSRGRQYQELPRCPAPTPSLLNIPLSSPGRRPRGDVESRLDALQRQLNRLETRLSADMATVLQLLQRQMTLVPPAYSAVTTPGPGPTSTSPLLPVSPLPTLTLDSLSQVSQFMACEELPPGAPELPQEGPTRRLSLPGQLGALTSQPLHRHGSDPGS
row,Compound,"hERG current change (%, negative = inhibition) at 1uM [%]"
1,O=C(CSc1nc2ccccc2c(=O)n1CCC(=O)N1CCCCC1)NCc1ccccc1,-43.1
2,Nc1c(C(=O)N/N=C/c2ccc([N+](=O)[O-])cc2)sc2nnc(-c3ccccc3)c(-c3ccccc3)c12,12.8
3,Cc1cc(C(=O)NNS(=O)(=O)c2ccc(F)cc2)nn1C(C)(C)C,8.83
4,CCSc1nc2c(cnn2-c2ccc(C)c(C)c2)c(=O)[nH]1,16.1
5,O=C(Nc1ccccc1)C1=C[C@H](C2CCCCC2)C[C@H](OCc2ccc(CO)cc2)O1,13.7
6,Cc1ccc(OCCCC(=O)N(C)CC(=O)Nc2ccccc2Cl)cc1,8.06
7,O=C(NC1CC1)C1=C[C@@H](c2ccc3c(c2)OCO3)C[C@@H](OCCCCO)O1,8.09
8,O=C(CCCn1cncn1)N1CCCC(N2CCN(c3ccccc3F)CC2)C1 (stereo not shown),15.8
9,O=C(c1cc(=O)c2ccccc2o1)N1CCCc2ccccc21,4.51
10,CCOC(=O)C(NC(=O)c1ccccc1)=C1CCCCC1,16.2
11,Cc1nc(NCCc2ccc(S(N)(=O)=O)cc2)c2c(C)c(C)sc2n1,10.2
12,C#C[C@]1(O)CC[C@H]2[C@@H]3[C@H](C)CC4=C(CCC(=O)C4)[C@H]3CC[C@@]21C,5.64
13,Cn1cc(S(=O)(=O)N2CCC(C(N)=O)CC2)c(=O)n(C)c1=O,11
14,O=C(CNC(=O)c1cccc(OC(F)F)c1)OCc1cc(=O)n2cc(Br)ccc2n1,-5.96
15,CN1C=C(C(F)(F)F)C=C/C1=C(\C#N)c1nnc2n1CCCCC2,9.49
16,N#C/C(=C/c1ccccc1[N+](=O)[O-])c1nnc2n1CCCCC2,10.2
17,COc1cc(NC(=O)Cc2ccccc2)ccc1NC(=O)Cc1ccccc1,18
18,O=C(COC(=O)Cc1ccc(Cl)cc1)NCc1ccc(F)cc1,0.242
19,COc1cc(/C=C(\C#N)c2nc3c(s2)CC(C)CC3)ccc1O (stereo not shown),14.2
20,CC(=O)Nc1cc(-c2ccc(Cl)cc2)[nH]n1,8.05
21,COc1ccc(C2CC(c3ccccc3)=NN2C(=O)c2ccc(Cl)c([N+](=O)[O-])c2)cc1 (stereo not shown),9.38
22,Cc1cccc(CSc2[nH]c(=O)ncc2C)c1,9.08

row,Compound,"hERG current change (%, negative = inhibition) at 1uM [%]"
1,CN1C(=O)N(C)C(=O)C2(Cc3cc([N+](=O)[O-])ccc3N3CCN(C(=O)c4ccccc4)CC32)C1=O (stereo not shown),-30.8
2,CN(C)CCn1cnc2ccccc21.Cl,8.56
3,COc1ccccc1C=NC(CO)C(O)c1ccc([N+](=O)[O-])cc1 (stereo not shown),3.78
4,COC(=O)Nc1nnc(Cc2ccc(Cl)cc2)s1,-1.19
5,COC(=O)CC(NC(=O)CN1CCN(c2ccc(F)cc2)CC1)c1cccc(F)c1 (stereo not shown),-3.38
6,CCOC(=O)c1nn(-c2ccccc2C)c(=O)cc1OCC(=O)Nc1cccc(OC)c1,13
7,Cc1ccc(NC(=O)CCCCCN2C(=O)[C@@H]3Cc4ccccc4CN3C2=O)c(C)c1,12.5
8,COc1ccc(CCC(=O)Nc2cnc3ccccc3c2)cc1,-1.69
9,O=C(NCCCn1ccnc1)/C(=C/c1ccc(Cl)cc1)NC(=O)c1ccccc1,-82.5
10,Cc1ccc(S(=O)(=O)N2CCN(c3ccccc3)CC2)cc1C(=O)NC1CCCCC1,10.8
11,O=C(NCC1CCCO1)c1ccc(C(=O)NCC2CCCO2)cc1 (stereo not shown),4.4
12,CN(CC(=O)N1CCN(c2ccc(F)cc2)CC1)S(=O)(=O)c1ccc(F)cc1,-34.9
13,CCC(C)Nc1nc2c(c(=O)[nH]c(=O)n2C)n1CCOc1ccccc1 (stereo not shown),5.15
14,Cl.Fc1cccc(Nc2ncnc3sc4c(c23)CCC4)c1,12
15,COc1cc(C2c3c([nH]c(=O)[nH]c3=O)Nc3ccc4ccccc4c32)cc(OC)c1OC (stereo not shown),13.1
16,O=C(CN1CC(=O)Oc2ccccc21)OCC(=O)c1ccc(Br)cc1,7.1
17,O=C(NCCCn1ccnc1)/C(=C/c1ccc(F)cc1)NC(=O)c1ccccc1,-72.2
18,CCOC(=O)c1nn2c(C(F)(F)F)cc(-c3ccc(OC)cc3)nc2c1Br,17.6
19,O=C(CCn1c(=O)[nH]c2ccsc2c1=O)NCCc1ccc(Cl)cc1,10.4
20,O=C(Nc1cccc(NC(=O)c2ccco2)c1)c1ccc2c(c1)OCO2,-16.4
21,C#CCOC(=O)c1ccc(-n2cncn2)nc1,12.4
